Screen size: about 310,000 compounds; about 14,000 (4.5%) showed an effect of 50% or more. Effects have a minus sign here. This is one part of the list.
molecular target: human ether-à-go-go-related gene (hERG) potassium channel (human, UniProt Q12809); experiment: primary screen, population patch clamp on CHO cells stably expressing hERG
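Further: peak tail current of the secondary pulse compared with the same well before compound.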

Chain of human ether-à-go-go-related gene (hERG) potassium channel (Q12809 whole entry, looked up): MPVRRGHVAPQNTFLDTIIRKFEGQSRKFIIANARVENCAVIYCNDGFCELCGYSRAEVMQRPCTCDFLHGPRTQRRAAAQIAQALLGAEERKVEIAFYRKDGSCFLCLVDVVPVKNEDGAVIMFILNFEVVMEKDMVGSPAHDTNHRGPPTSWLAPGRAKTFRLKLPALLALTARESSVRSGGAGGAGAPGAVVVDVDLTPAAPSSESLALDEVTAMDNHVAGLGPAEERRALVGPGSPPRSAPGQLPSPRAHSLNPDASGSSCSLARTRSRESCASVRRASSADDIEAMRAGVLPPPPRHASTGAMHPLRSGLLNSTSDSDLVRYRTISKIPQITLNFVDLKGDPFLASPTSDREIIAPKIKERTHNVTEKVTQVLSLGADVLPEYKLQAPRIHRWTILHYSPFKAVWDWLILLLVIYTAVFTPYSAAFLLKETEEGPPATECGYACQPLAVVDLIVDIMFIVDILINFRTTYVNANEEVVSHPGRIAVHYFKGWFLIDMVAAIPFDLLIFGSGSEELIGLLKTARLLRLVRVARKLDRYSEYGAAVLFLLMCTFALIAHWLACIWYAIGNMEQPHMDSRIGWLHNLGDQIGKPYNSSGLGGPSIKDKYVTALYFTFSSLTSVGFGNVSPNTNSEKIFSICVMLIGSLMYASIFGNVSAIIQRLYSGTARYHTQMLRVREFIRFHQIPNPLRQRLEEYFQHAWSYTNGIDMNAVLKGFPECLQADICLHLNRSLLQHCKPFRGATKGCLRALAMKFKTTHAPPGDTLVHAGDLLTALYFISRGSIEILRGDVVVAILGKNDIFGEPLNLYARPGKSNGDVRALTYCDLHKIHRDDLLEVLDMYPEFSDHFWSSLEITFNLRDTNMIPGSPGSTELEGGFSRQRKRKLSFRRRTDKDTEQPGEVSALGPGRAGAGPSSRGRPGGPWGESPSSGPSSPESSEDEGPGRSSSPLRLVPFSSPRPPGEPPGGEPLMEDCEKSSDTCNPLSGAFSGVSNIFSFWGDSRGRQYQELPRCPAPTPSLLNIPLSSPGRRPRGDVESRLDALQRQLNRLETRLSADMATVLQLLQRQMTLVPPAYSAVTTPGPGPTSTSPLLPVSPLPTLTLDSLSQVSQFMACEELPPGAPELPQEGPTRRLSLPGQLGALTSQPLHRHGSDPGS

SMILES	hERG current change (%, negative = inhibition) at 10uM
Cc1ccc(S(=O)(=O)N2CCN(Cc3nc4ccccc4n3C)CC2)cc1	-53.5%
COCc1cnc(C)nc1N	19.4%
CC1=C(OC(=O)C(C)(C)C)C(C)(C)C(c2ccccc2)OC1=O (stereo not drawn)	-13.4%
CCCn1c(SCC(=O)NCC2CCCO2)nc2c1c(=O)n(C)c(=O)n2C (stereo not drawn)	7.08%
c1ccc(CSc2ccc(-c3cccnc3)nn2)cc1	-13.7%
Cc1cc(C)cc(C(=O)NCCCN2CCOCC2)c1	2.04%
CC(=O)Cn1nnc(-c2ccc(C(F)(F)F)cc2)n1	6.1%
CCOc1ncccc1C(=O)OCc1cccc([N+](=O)[O-])c1	10.2%
CCN(CC)CCNC(=O)Cc1nn(Cc2ccccc2)c(=O)c2ccccc12	-29.1%
CNC(=O)O/N=C(\N)Cc1csc2ccc(Cl)cc12	-0.857%
COC(=O)c1c(NS(=O)(=O)c2ccc3ccccc3c2)sc2c1CCCC2	7.85%
O=C(Cc1cccs1)NNC(=S)NCc1ccc(Cl)cc1	10.1%
Cc1c(C(=O)OC(C)C)[nH]c2c1C(=O)CC(C)(C)C2	-4.63%
FC(F)(F)c1nnc(-c2ccccc2)nc1Sc1ccccc1	13%
CC(OC(=O)c1ccc2c(=O)n3c(nc2c1)CCC3)C(=O)NC1CCCCC1C (stereo not drawn)	3.36%
COC(=O)c1ccc(C23CC4(C2)[C@H](CN(CC2CCCCC2)[C@@H]4c2ccccc2)C3c2ccc(Cl)nc2)cc1 (stereo partly drawn)	11.7%
CCOCCCNC(=O)C1CCC(=O)N1CCc1ccccc1 (stereo not drawn)	5.03%
COc1ccc(C(=O)c2ccc(Cl)cc2)c2ccccc12	8.23%
CCS(=O)(=O)C1=NN2C(=N)/C(=C\c3ccc(OC(=O)c4ccco4)cc3)C(=O)N=C2S1	17.5%
O=C1NC(=S)SC1=C1CCCC1	24.3%
C/C(=N\NS(=O)(=O)c1cccc([N+](=O)[O-])c1)c1cccnc1	13.6%
CC(NC(=O)c1ccco1)C(c1cccs1)N1CCN(c2ccc(F)cc2)CC1 (stereo not drawn)	-8.06%
CCOC(=O)C1=C(C)NC2=C(C(=O)CC(C)(C)C2)C1c1ccc(N(C)C)cc1 (stereo not drawn)	9.64%

SMILES	hERG current change (%, negative = inhibition) at 10uM
CC(C)(C)n1nnnc1C(c1ccc(F)cc1)N(Cc1ccc(F)cc1)Cc1ccco1 (stereo not drawn)	1.97%
CNS(=O)(=O)c1ccc(NC(=O)C(CCSC)NC(N)=O)cc1 (stereo not drawn)	8.56%
CC(C)CC(=O)N=C1SC2CS(=O)(=O)CC2N1Cc1ccccc1 (stereo not drawn)	6.86%
O=C(CCCSc1nc2ccccc2s1)NC1=NCCS1	-4.71%
COc1ccc(S(=O)(=O)N2CCN(C/C=C/c3ccccc3)CC2)cc1F	-30.1%
Cl.OC(CCN1CCCC1)(c1ccccc1)C1CCCCC1 (stereo not drawn)	-12.4%
COc1ccc(NC(=S)N2CCN(S(C)(=O)=O)CC2)cc1OC	4.68%
Cc1cc(S(=O)(=O)N2CCCC2)ccc1OCC(=O)N1CCC(C(N)=O)CC1	19.4%
CC1=C(C)CC(C(=O)NCc2ccccc2F)C(C(=O)O)C1 (stereo not drawn)	0.402%
CCOC(=O)N1CCC(=NNC(=O)c2ccccc2F)CC1	-3.83%
CC(C)NC(=S)N1CCN(S(=O)(=O)c2cccc(C(F)(F)F)c2)CC1	-1.79%
CCOC(=O)Cc1csc(NC(=O)Nc2ccc(OC(F)(F)F)cc2)n1	18.6%
CCC(C(=O)NC1CCCCC1)n1c(SCc2cccc(C)c2)nc2ccncc21 (stereo not drawn)	-28.4%
CC(=Nc1ccc(C)cc1)c1sc2ccccc2c1O	4.53%
Cc1ccc([C@@H]2CC=C(C(=O)O)[C@H](c3ccc(F)cc3)N2S(=O)(=O)c2ccc(C)cc2)cc1	17.4%
CN(CC(=O)Nc1ccccc1F)Cc1cccs1	15.6%
O=c1nc(C(F)(F)F)nc2ccccn12	0.714%
Cc1ccc(Cn2c(N3CCN(CCO)CC3)nc3c2c(=O)n(C)c(=O)n3C)cc1	-4.08%
COC(=O)C1=C(C)NC(C)=C(C(=O)OC)C1C(=O)OCc1nc2cc(C(=O)OC)ccc2c(=O)[nH]1	-18.5%
COc1ccc(NC(=O)/C(=C\c2ccncc2)NC(=O)c2ccccc2)cc1	-12.5%
Cc1sc2ncn(CC(=O)NCCCC(=O)N3CCC4(CC3)OCCO4)c(=O)c2c1C	5.76%
Cc1nn(Cc2ccccc2)c(C)c1C=C1C(=O)NC(=O)NC1=O	15%
CCOC(=O)c1c(Nc2ccc(Cl)cc2)sc(/C=C2\C=Nc3ccccc32)c1O	5.52%

SMILES	hERG current change (%, negative = inhibition) at 10uM
CC(C)(C)NC(=O)CSCc1c(Cl)cccc1Cl	-16.5%
N#CCCN(Cc1ccccc1)C(=S)Nc1ccc(F)cc1	6.43%
O=C(c1ccccc1)N1CCN(S(=O)(=O)c2cccc(NS(=O)(=O)c3ccccc3)c2)CC1	-0.537%
Cc1ccc2c(c1)cc(CN(Cc1ccco1)C(=O)COc1ccccc1)c1nnnn12	9.43%
COc1ccc(OC)c(S(=O)(=O)N2CCC(C(=O)N3CCOCC3)CC2)c1	15.7%
CCCNc1nc2c(c(=O)n(C)c(=O)n2C)n1CCCc1ccccc1	-11.3%
NC1=NC(=O)C(Cc2cccc(Cl)c2Cl)S1 (stereo not drawn)	4.99%
CSc1nsc(SCC(=O)Nc2ccc(C(=O)O)cc2)n1	-7.26%
CN(CC1CCCN(CCc2cccc(C(F)(F)F)c2)C1)C(=O)c1ccco1 (stereo not drawn)	-69.2%
Cc1nnc(N2C(=O)c3ccc(Br)cc3C2=O)s1	25.6%
COc1ccc(O)c(/C=N/NC(=O)c2cccc(N3CCCC3=O)c2)c1	9.17%
COc1ccccc1NC(=O)CN1CCN(C(=O)C2CCCO2)CC1 (stereo not drawn)	0.971%
CCCOc1ccc(N2C(=O)C/C(=C\c3ccccc3)C2=O)cc1	20.1%
CC(=O)Nc1ccc(OS(=O)(=O)c2ccc(C)cc2C)cc1	-2.86%
O=c1[nH]cnc2c([N+](=O)[O-])cccc12	12.2%
Cc1cccc(NC(=O)C2CC(=O)OC23CCCCC3)c1 (stereo not drawn)	-0.121%
COc1ccc(C(C(=O)NC2CCCCC2)N2CCC3(CC2)OCCO3)cc1 (stereo not drawn)	-8.32%
O=C(Cn1c2[n+](c3ccc(C(F)(F)F)cc31)CCCCC2)Nc1ccc(Br)cc1.[Cl-]	19%
Cc1ccc(-c2noc(-c3ccccc3C(=O)NCC3CCCO3)n2)cc1 (stereo not drawn)	-18.6%
COc1ccccc1Oc1ccc2c(c1)C(=O)N(c1ccccc1)C2=O	-3.59%
COc1cc(S(=O)(=O)Nc2cccc(C)c2)ccc1NC(=O)c1cccnc1	18.7%
Cc1nnc(Nc2ccc3c(c2)OCO3)c2ccccc12	-7.51%
CN(C)CCNC(=O)/C(=C/c1ccc(-c2cccc(Cl)c2)o1)NC(=O)c1ccccc1	-72%

SMILES	hERG current change (%, negative = inhibition) at 10uM
CC(C)CCNC(=O)CCCC1=NS(=O)(=O)c2ccccc2N1	-5.75%
Cc1cc(NC(=O)CSc2nc3cc(C(=O)NCCCOC(C)C)ccc3c(=O)n2Cc2ccco2)no1	-3.13%
Cc1ccsc1/C=C1\C(=O)NC(=S)N(C)C1=O	15.3%
COc1ccc(OCC(=O)NCCCCCCNC(=O)COc2ccc(OC)cc2)cc1	10.6%
Cc1cccc(C(=O)NCCCNC(=O)c2ccccn2)c1	12.3%
COC(=O)COc1ccc(S(=O)(=O)Nc2ccccc2SC)cc1	-17.7%
Cc1cc2ccccc2c(=O)n1CC(=O)NCC(=O)N1CCN(c2ccccc2)CC1	-23.6%
O=c1c2ccccc2[nH]c(=S)n1Cc1cccs1	-45.2%
O=C(Nc1ccc(Cl)cc1)N1CCN(C(=O)C2CCCO2)CC1 (stereo not drawn)	14.9%
O.O=P1(N(CCCl)CCCl)NCCCO1 (stereo not drawn)	16.5%
Nn1c(SCC(=O)NCCCc2ccccc2)nnc1-c1cccnc1	20.1%
CCOC(=O)C1=C(COC(=O)/C=C/c2cccc(Br)c2)NC(=O)NC1C (stereo not drawn)	-16.9%
NC(=S)NN=C1C2CC3CC(C2)CC1C3	1.51%
COc1cc(/C=C(\C#N)C(=O)NCC2CCCO2)ccc1O (stereo not drawn)	-12.7%
Cc1cccc(N2CCN(C(=O)N3CCOCC3)CC2)c1C	10.9%
O=C(CCNC(=O)c1ccco1)Nc1ccc(Cl)c(C(F)(F)F)c1	-16.3%
CCOc1ccc(S(=O)(=O)N2CCCC(C(=O)NCc3ccccn3)C2)cc1Cl (stereo not drawn)	-27.6%
O=C(CS(=O)CC(=O)N(c1cccc(F)c1)C(C(=O)NC1CCCCC1)c1ccco1)Nc1ccc(F)cc1 (stereo not drawn)	-10.3%
C=CCn1c(N)c(-c2nc3ccccc3n2C)sc1=S	2.96%
CC(=O)N1CCN(Cc2nc3cc(NC(=O)c4ccc(Cl)cc4)ccc3n2C)CC1	-65.8%
Cc1cc(OC(C)C(=O)N(Cc2cccs2)C2CCS(=O)(=O)C2)ccc1Cl (stereo not drawn)	-34.5%

From article PMC4336329 (PLoS ONE, 2015)
